Measured values published in PubChem BioAssay AID504339 (National Center for Advancing Translational Sciences (NCATS), 2011).
Values joined by “and” are separate entries in the source; they are usually repeats but may differ in a detail not shown here. Equal entries are not always repeated. About 17,000 (4.4%) of roughly 390,000 compounds were called active. The shares of active, inactive and inconclusive entries below differ from those in the screen. Calls follow the shape of the dose curve; as a rule, active = well fitted inhibition curve with a large enough effect; inconclusive = small, poorly fitted or top-dose-only effect; inactive = no such curve, though single readings can be large or run the other way. A potency beside an inconclusive call is a rough fit, not a confirmed value.

molecular target: Lysine-specific demethylase 4A (Homo sapiens) (UniProt O75164); assay: qHTS Assay for Inhibitors of JMJD2A-Tudor Domain; conditions: AlphaScreen JMJD2A-Tudor / H3K4me3 peptide binding; activity change, negative = inhibition: at 114 µM (top of the series); also: nearly all actives have a fitted effect of over 50% in size
% is scaled to controls: 0 for no effect and ±100 for the full control effect; potency is read from the fitted curve at half-maximal effect; tags tell the direction and shape of the fitted curve.

Sequence of UniProt O75164 (O75164 whole entry, looked up, the tested form may be a part): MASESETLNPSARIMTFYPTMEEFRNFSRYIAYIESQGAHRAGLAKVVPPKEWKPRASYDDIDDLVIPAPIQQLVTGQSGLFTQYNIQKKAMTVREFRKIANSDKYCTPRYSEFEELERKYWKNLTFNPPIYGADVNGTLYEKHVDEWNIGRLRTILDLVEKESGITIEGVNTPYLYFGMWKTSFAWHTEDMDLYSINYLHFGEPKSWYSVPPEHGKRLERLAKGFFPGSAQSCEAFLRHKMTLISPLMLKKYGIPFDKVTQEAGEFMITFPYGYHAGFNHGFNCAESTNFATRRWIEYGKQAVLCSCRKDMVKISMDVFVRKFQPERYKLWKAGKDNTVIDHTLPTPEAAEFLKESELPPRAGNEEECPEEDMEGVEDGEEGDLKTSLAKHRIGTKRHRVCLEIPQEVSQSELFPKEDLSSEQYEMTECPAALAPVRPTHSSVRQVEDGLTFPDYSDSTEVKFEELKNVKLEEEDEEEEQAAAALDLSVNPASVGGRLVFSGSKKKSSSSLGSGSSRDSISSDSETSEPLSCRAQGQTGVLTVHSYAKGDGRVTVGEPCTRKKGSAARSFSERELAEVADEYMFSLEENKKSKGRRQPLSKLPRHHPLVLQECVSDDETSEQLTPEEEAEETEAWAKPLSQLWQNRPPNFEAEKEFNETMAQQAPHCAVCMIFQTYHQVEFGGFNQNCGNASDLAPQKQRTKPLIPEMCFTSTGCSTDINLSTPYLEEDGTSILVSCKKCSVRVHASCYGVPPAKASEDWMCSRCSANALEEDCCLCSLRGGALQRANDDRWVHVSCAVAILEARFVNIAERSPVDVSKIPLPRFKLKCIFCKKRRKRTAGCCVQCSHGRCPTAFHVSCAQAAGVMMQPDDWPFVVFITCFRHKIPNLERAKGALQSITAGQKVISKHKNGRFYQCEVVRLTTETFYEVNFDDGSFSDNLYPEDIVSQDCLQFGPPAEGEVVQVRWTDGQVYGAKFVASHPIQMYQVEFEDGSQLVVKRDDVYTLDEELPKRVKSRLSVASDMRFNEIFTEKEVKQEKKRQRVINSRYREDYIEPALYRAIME

Potency, inconclusive:
CN=C1S/C(=C\c2cc(C)n(-c3ccccc3F)c2C)C(=O)N1C 50.1 µM [inhibitor, partial curve]
Cc1nc(SCc2ccc(O)c([N+](=O)[O-])c2)n[nH]1 31.6 µM [inhibitor, single point]
COc1ccc(N2CCN(S(=O)(=O)CCNC(=O)C34CC5CC(CC(C5)C3)C4)CC2)cc1 79.4 µM [inhibitor, partial curve]
Cc1nn2c(c1-c1ccc(Cl)cc1)N=C(c1ccco1)CC2c1ccccc1 (stereo not given) 20 µM [inhibitor, full curve]
CCOC(=O)C1=C(C)NC(=NC)SC1c1ccccc1 (stereo not given) 15.8 µM [inhibitor, full curve]
O=C1NC(c2cccc(Br)c2)=N/C1=C\c1ccco1 31.6 µM [inhibitor, single point]
COc1ccc([C@H]2Oc3cc(O)cc(O)c3C(=O)C2[C@@H]2C(=O)c3c(O)cc(O)cc3O[C@@H]2c2ccc(OC)cc2)cc1 (stereo not given in full) 50.1 µM [inhibitor, partial curve]
O=c1[nH]c(-c2ccncc2)nc2ccccc12 79.4 µM [inhibitor, single point]
Cc1cccc(-n2c(C)cc(C(=O)NC3CCCCC3)c2C)c1 25.1 µM [inhibitor, single point]
COc1cccc(Cn2c(=O)n(Cc3ccco3)c(=O)c3oc4ccccc4c32)c1 3.16 µM [inhibitor, full curve, poor fit]
CCN(CC)c1ccc(NC(=O)CSc2nc(C3CC3)nc3ccccc23)cc1C 50.1 µM [inhibitor, partial curve]
O=c1[nH]c2cc3c(cc2cc1CN(Cc1cccs1)Cc1nnnn1Cc1ccco1)OCCO3 56.2 µM [inhibitor, partial curve]
Cn1c(C(=O)Nc2ccc3c(c2)OCCO3)cc2sccc21 44.7 µM [inhibitor, partial curve]
CCOC(=O)CNC(=O)CSc1ncnc2c1cnn2-c1ccc(Cl)cc1 70.8 µM [inhibitor, single point]
Fc1ccc(CN2CCCN(Cc3nc(-c4ccc5c(c4)OCO5)no3)CC2)cc1 39.8 µM [inhibitor, partial curve]
CCN(CC)P(=O)(Nc1cccc(C(F)(F)F)c1)c1ccc(N(C)C)cc1NC(=O)c1ccco1 (stereo not given) 50.1 µM [inhibitor, partial curve, poor fit]
Cc1ccc2c(c1)N=C(c1ccccc1)CC(C(Cl)Cl)=N2 50.1 µM [inhibitor, partial curve]
COc1cc(NS(=O)(=O)c2ccc3[nH]c4c(c3c2)CCCCCC4)cc(OC)c1 35.5 µM [inhibitor, full curve]
Cn1c(=O)c(C(=O)Nc2ncccc2O)c(O)c2ccccc21 89.1 µM [inhibitor, partial curve]
O=C(CSc1ccc(Cl)cc1)Nc1nnc(-c2ccco2)o1 39.8 µM [inhibitor, full curve]
Cc1ccc(-c2nc3ccccc3o2)cc1NC(=S)NC(=O)/C=C/c1ccco1 50.1 µM [inhibitor, partial curve]
Cc1ccc(-c2nnc(Nc3cccc(O)c3)c3ccccc23)cc1S(=O)(=O)N1CCN(C)CC1 70.8 µM [inhibitor, single point]
COc1cccc(NC(=O)CC(=O)c2ccc([N+](=O)[O-])cc2)c1 56.2 µM [inhibitor, partial curve]
CCc1nnc(NC(=O)CSc2nnc(-c3ccoc3C)n2-c2ccc(C)cc2)s1 79.4 µM [inhibitor, single point]
C[C@H](NC(=O)[C@@H]1Cc2ccccc2CN1)C(=O)NCC1CCCO1 (stereo not given in full) 22.4 µM [inhibitor, single point]
CC(=O)c1cc2c(cc1NC(=O)CN1CCCCCCC1)OCO2 39.8 µM [inhibitor, partial curve, poor fit]
Cc1cncn1CCc1nc2c3ccccc3nc(SCC(=O)Nc3cccc(Cl)c3)n2n1 28.2 µM [inhibitor, single point] and 31.6 µM [inhibitor, full curve]
O=C(O)c1ccc(N=Cc2c(O)ccc3ccccc23)cc1 22.4 µM [inhibitor, partial curve]
CCn1ncc(Cl)c1C(=O)NC(=S)Nc1c(C)cc(C)cc1[N+](=O)[O-] 39.8 µM [inhibitor, single point]
CC(Nc1nc(-c2ccc(F)cc2)cs1)c1nc2cc(Cl)c(N3CCCCC3)cc2n1CCOCCO (stereo not given) 56.2 µM [inhibitor, partial curve]
Cc1ccc(OCC(=O)N(Cc2ccc(C)o2)C2CCS(=O)(=O)C2)cc1 (stereo not given) 15.8 µM [inhibitor, full curve]
CCN1C(=O)/C(=C\N2CCN(c3cccc(Cl)c3)CC2)SC1=S 8.91 µM [inhibitor, full curve, poor fit]
COc1ccc(-c2cn(-c3ccc(C)cc3C)c(=S)[nH]2)cc1OC 56.2 µM [inhibitor, partial curve]
Cc1cccn2c(=O)c(C=C(C#N)C#N)c(N3CCN(c4ccccc4)CC3)nc12 6.31 µM [inhibitor, full curve, poor fit]
COc1ccc(OC)c(NC(=O)c2ccc(S(=O)(=O)N3CCOCC3)cc2)c1 79.4 µM [inhibitor, partial curve]
Cc1nn(-c2ccccc2)c(Cl)c1C1C(C#N)=C(N)Oc2c1c(C)nn2-c1ccccc1 (stereo not given) 35.5 µM [inhibitor, single point]
Cc1c([N+](=O)[O-])cc(C(=O)Oc2ccc(Br)cc2C(=S)N2CCCCC2)cc1[N+](=O)[O-] 31.6 µM [inhibitor, partial curve]
Cc1cc(/C=C(/C#N)c2cccc(F)c2)c(C)n1-c1cccnc1 56.2 µM [inhibitor, partial curve]
CCOC(=O)c1c(NC(=O)c2ccc(S(=O)(=O)N3CCOCC3)cc2)sc2c1CCN(C(C)C)C2 100 µM [inhibitor, partial curve]
Cc1ccc(C(C)NC(=O)/C(C#N)=C\c2c(C)[nH]c3ccccc23)cc1 (stereo not given) 15.8 µM [inhibitor, full curve]
O=C(COC(=O)C1CCCCC1)Nc1ccc(N2CCCCC2)cc1 56.2 µM [inhibitor, partial curve]

Potency, active:
O=C1C2C(C(=O)N1/N=C/c1cc([N+](=O)[O-])c(O)cc1O)C1C=CC2C12CC2 (stereo not given) 50.1 µM
Cc1cc(Cl)c(OCCOCCN2CCC(C)CC2)c(Br)c1 7.94 µM
CCCC(NC(=O)Cc1c(C)c2cc3c(C)c(C)oc3c(C)c2oc1=O)C(=O)N[C@@H](Cc1ccccc1)C(=O)O (stereo not given in full) 56.2 µM
Cc1ccc(C(=O)OCC(=O)c2ccc(CC(=O)N3CCOCC3)s2)c(C)c1 12.6 µM
CC1Cc2cc(/C(O)=C3/C(=O)C(=O)N(CCCn4ccnc4)C3c3cccnc3)ccc2O1 (stereo not given) 14.1 µM
Cc1ccc(-n2c(=O)c3cc4c(=O)n(-c5ccc(C)c(C)c5)c(=O)c4c(C(=O)c4ccc(C(=O)O)cc4)c3c2=O)cc1C 12.6 µM
CC(C)COc1ccc(C(=O)N(Cc2ccc(N(C)C)cc2)Cc2ccco2)cc1 14.1 µM
CCN(CC)S(=O)(=O)c1ccc(/C=C/C(=O)OCC(=O)NCc2ccco2)cc1 31.6 µM
COc1ccc(CN2CCN(C(=O)c3ccccc3F)CC2)c(OC)c1OC 1.78 µM
CCOc1ccc(CN2CCC(C(=O)N3CCN(c4ccccc4F)CC3)CC2)cc1OC 7.08 µM
COc1ccc(OC)c(NC(=O)c2c(NCc3cccs3)sc3c2CCCC3)c1 39.8 µM
O=C(N/N=C1/CC2C=CCC12)c1ccco1 (stereo not given) 50.1 µM
CCC(C(=O)Nc1nc(C)cs1)c1ccccc1 (stereo not given) 50.1 µM
Cc1ccn2c(Nc3ccc(F)cc3)c(-c3ccccn3)nc2c1 25.1 µM

Activity change, negative = inhibition, inactive:
O=C(Nc1ccc(OC(F)F)cc1)c1cc(S(=O)(=O)N2CCOCC2)ccc1F -8.33%
CN(Cc1ccccc1)C(=O)c1[nH]cnc1C(=O)Nc1ccon1 -12.9%
CCCOc1cccc(C(=O)N(Cc2ccc(C)o2)C2CCS(=O)(=O)C2)c1 (stereo not given) -31.2%
Nc1ccc(-n2nnnc2CN2CCOCC2)cc1 -10.6%
O=C(NCCc1ccccc1)c1ccccc1C(=O)NCCc1ccccc1 -10.1%
COCCSc1ccccc1C(=O)Nc1cc([N+](=O)[O-])ccc1OC -14.5%
COC(=O)CN1C(=O)[C@@H]2[C@H](C1=O)[C@@H]1CC(C(=O)OC)=C[C@@H](C(=O)OC)C3C1=C(C(=O)[C@]3(C)NC(=O)c1ccccc1)[C@@H]2C (stereo not given in full) -13.1%
Cc1ccc(C)c(N2N=C(C(=O)OCc3nnc(-c4ccccc4)o3)CCC2=O)c1 -8.28%
O=C(Cn1nc(-c2ccccc2)nc(Cc2ccccc2)c1=O)Nc1ccccc1 -14.7%
CC(=O)Nc1ccc(S(=O)(=O)N2C(C)CCCC2C)cc1 (stereo not given) -12.8%
